# Measured values from PubChem BioAssay AID1645882 (National Center for Advancing Translational Sciences (NCATS), 2021).
# “And” between values parts separate entries of the source, which are not always exact repeats. Equal entries are not always repeated. Out of some 16,000 compounds screened, about 120 (0.75%) were called active. Inconclusive means that the source gave no clear call. Such entries were picked first, then a sample of the others. Calls come from the whole dose curve; as a rule, active = well fitted inhibition curve with a large enough effect; inconclusive = small, poorly fitted or top-dose-only effect; inactive = no such curve, though single readings can be large or run the other way. Potencies of inconclusive entries are doubtful fits and often do not repeat.
# Target: Rap guanine nucleotide exchange factor 3 (Homo sapiens) (UniProt O95398)
# UniProt O95398, sequence (O95398 whole entry, looked up): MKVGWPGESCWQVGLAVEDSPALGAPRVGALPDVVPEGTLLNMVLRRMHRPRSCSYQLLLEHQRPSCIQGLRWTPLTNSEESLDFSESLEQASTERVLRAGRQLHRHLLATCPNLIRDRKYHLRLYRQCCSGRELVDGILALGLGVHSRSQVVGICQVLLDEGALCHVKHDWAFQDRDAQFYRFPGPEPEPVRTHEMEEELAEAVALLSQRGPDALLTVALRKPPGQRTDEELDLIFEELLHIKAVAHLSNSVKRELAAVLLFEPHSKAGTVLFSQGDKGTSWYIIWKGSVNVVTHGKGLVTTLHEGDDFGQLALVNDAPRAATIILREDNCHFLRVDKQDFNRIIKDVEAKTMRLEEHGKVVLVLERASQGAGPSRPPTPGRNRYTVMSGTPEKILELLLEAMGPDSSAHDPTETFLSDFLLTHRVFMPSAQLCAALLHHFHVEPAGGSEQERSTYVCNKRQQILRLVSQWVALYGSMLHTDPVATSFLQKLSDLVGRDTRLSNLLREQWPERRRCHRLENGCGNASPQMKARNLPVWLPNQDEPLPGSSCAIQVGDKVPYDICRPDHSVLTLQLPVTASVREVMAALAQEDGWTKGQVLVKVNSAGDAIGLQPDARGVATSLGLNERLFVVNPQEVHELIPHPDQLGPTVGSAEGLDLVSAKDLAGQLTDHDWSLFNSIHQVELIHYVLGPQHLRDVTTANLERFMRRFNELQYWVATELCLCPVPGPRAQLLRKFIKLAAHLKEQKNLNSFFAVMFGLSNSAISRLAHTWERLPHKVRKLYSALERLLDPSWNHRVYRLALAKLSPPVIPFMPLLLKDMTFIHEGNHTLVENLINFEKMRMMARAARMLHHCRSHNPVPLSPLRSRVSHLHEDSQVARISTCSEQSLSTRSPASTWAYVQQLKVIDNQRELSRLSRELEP
# Assay: Validation qHTS for antagonist of cAMP-regulated guanine nucleotide exchange factor 3 (EPAC1); note: nearly all actives have a fitted effect of over 75% in size
# Settings: EPAC1 Rap1B-BODIPY-GDP exchange, fluorescence; series mostly up to 150 µM
# In short: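 Nucleotide exchange followed as fluorescence loss when BODIPY-GDP leaves Rap1B (480 nm excitation, 540 nm emission), read at 5 min intervals over 30 min. Reaction: 100 nM EPAC1, 250 nM RAP1B-BODIPY-GDP, 50 uM GDP; ATA and DMSO define normalization.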
# Potency is the fitted concentration of half-maximal effect; tags give direction and shape of the fitted curve.
row,SMILES,Potency
1,O=C(/C=C\c1ccc(O)c(O)c1)O[C@@H](Cc1ccc(O)c(O)c1)C(=O)O,inactive
2,Cc1nc(N=Nc2ccc(C(=O)O)cc2)c(COP(=O)(O)O)c(C=O)c1O,inactive
3,COc1ccc2[nH]cc(CCNc3cc(-c4ccccc4C(F)(F)F)ncn3)c2c1,"inconclusive: 56.2 µM [inhibitor, single point]"
4,CC(=O)N[C@@H](CSC/C=C(\C)CCC=C(C)C)C(=O)O,inactive
5,COc1cc(C(=O)N2CCOCC2)cc(OC)c1OC,"inconclusive: 126 µM [inhibitor, single point]"
6,CCN1\C(=C/C=C/C=C/c2sc3ccccc3[n+]2CC)Sc2ccccc21,"inconclusive: 79.4 µM [inhibitor, partial curve]"
7,Nc1ncnc2c1nc(Br)n2C1OC(CO)C(O)C1O (stereo not given),inactive
8,CC1=C(/C=C/C(C)=C/C=C/C(C)=C/C(=O)Nc2ccc(O)cc2)C(C)(C)CCC1,"inconclusive: 3.98 µM [inhibitor, partial curve, poor fit]"
9,Cc1ccc(S[C@@H](CCN2CC[C@H](C(C)(C)C)CCC2=O)c2ccccc2)cc1,"inconclusive: 35.5 µM [inhibitor, partial curve]"
10,COC(=O)CCC(C)C1CCC2C3CC[C@H]4CC(O)CC[C@@]4(C)C3CC(O)[C@]12C (stereo not given in full),"inconclusive: 28.2 µM [inhibitor, partial curve, poor fit]"
11,COc1cccc(Nc2ncc3nc(-c4ccc(F)cc4)c(=O)n(C[C@H]4CCCO4)c3n2)c1,"inconclusive: 14.1 µM [inhibitor, full curve]"
12,Nc1ccc(C(=O)Oc2ccccc2)c(O)c1,"inconclusive: 112 µM [inhibitor, single point]"
13,O=C1C(=O)N(Cc2ccc(Cl)c(Cl)c2)c2ccccc21,"inconclusive: 89.1 µM [inhibitor, partial curve, poor fit]"
14,CCOC(=O)/C=C/c1ccc2c(c1)S(=O)(=O)N(C1CCCC1)[C@H]2CC(=O)OCC,inactive
15,Cc1ccc2nccc(/C=C/c3ccc(N(C)C)cc3)c2c1,"inconclusive: 28.2 µM [inhibitor, full curve]"
16,C#C[C@]1(OC(C)=O)CC[C@H]2[C@@H]3CCC4=C[C@@H](OC(C)=O)CC[C@@H]4[C@H]3CC[C@@]21C,"inconclusive: 50.1 µM [inhibitor, partial curve, poor fit] and inconclusive: 15.8 µM [inhibitor, partial curve]"
17,CCOC(=O)C[C@H]1c2ccc(C(F)(F)F)cc2S(=O)(=O)N1c1cccc(OC)c1,"inconclusive: 44.7 µM [inhibitor, partial curve]"
18,COc1ccc(C(=O)N2CCC3(CCN(Cc4cc(C(F)(F)F)cc(C(F)(F)F)c4)CC3)CC2)cc1,"inconclusive: 44.7 µM [inhibitor, partial curve]"
19,CCCCC[C@H]1CN(Cc2ccccc2)C(=O)[C@@H]1CC(=O)NCc1ccccc1,"inconclusive: 89.1 µM [inhibitor, partial curve]"
20,CCCCCCCC/C=C\CCCCCCCC(=O)NCc1ccc(O)c(OC)c1,"inconclusive: 35.5 µM [inhibitor, full curve]"

row,SMILES,Potency
1,CCCCCCCCCCCCN1[C@@H](CC(=O)OC)c2cc(F)ccc2S1(=O)=O,"inconclusive: 20 µM [inhibitor, full curve, poor fit]"
2,Cc1cc(=O)c2c(O)c3c(O)cc(O)c4c5c(O)cc(O)c6c(O)c7c(=O)cc(C)c8c1c2c(c34)c(c65)c78,"inconclusive: 112 µM [inhibitor, single point]"
3,C[N+](C)(CCCCCC[N+](C)(C)CCCN1C(=O)c2ccccc2C1=O)CCCN1C(=O)c2ccccc2C1=O,inactive
4,O=C1C=CC(=C(c2ccc(O)cc2)c2ccc(O)cc2)C=C1,"inconclusive: 89.1 µM [inhibitor, single point]"
5,O=C1[C@H](Cc2ccccc2)NCCCC[C@@H](c2ccc(Cl)cc2)N1Cc1ccccc1,"inconclusive: 63.1 µM [inhibitor, partial curve]"
6,Nc1cc(N)cc(N)c1,active: 44.7 µM
7,Nc1c(S(=O)(=O)O)cc(Nc2ccc(Nc3nc(Cl)nc(Nc4ccc(S(=O)(=O)O)cc4)n3)c(S(=O)(=O)O)c2)c2c1C(=O)c1ccccc1C2=O,active: 22.4 µM
8,CC(=O)N[C@@H](Cc1c[nH]c2ccccc12)C(=O)O,inactive
9,CC(C)c1c(C(=O)NC(c2cccnc2)C(F)(F)F)cnn1-c1nccc(-c2cccs2)n1 (stereo not given),"inconclusive: 50.1 µM [inhibitor, single point]"
10,CC(C)=CCOc1ccc(/C=C/C(=O)c2ccc(OCC=C(C)C)cc2OCC(=O)O)cc1,"inconclusive: 89.1 µM [inhibitor, partial curve]"
11,CCCCCCCCCCCCCCCC[n+]1ccc(/C=C/c2c[nH]c3ccccc23)c2ccccc21,"inconclusive: 126 µM [inhibitor, single point]"
12,Cc1ccccc1C(=O)N1CCc2c(cnc(C)c2CNC(=O)c2ccc3c(c2)OCO3)C1,"inconclusive: 44.7 µM [inhibitor, single point]"
13,Cc1ncc2c(c1CNC(=O)c1ccc3c(c1)OCO3)CCN(C(=O)c1coc3c1C(=O)CCC3)C2,"inconclusive: 112 µM [inhibitor, single point]"
14,COc1cc(O)c(C(=O)/C=C/c2ccc(OC)c(O)c2)c(OC)c1,"inconclusive: 100 µM [inhibitor, partial curve]"
15,C[C@@]1(C(=O)O)NCCc2cc(O)c(O)cc21,"inconclusive: 50.1 µM [inhibitor, partial curve]"
16,CCOC(=O)c1c(C)[nH]c2ccc3c(c12)CN1CCc2cc(OC)ccc2[C@@H]1O3,"inconclusive: 31.6 µM [inhibitor, single point]"
17,COc1cccc(-c2cncnc2-n2ccnc2)c1,"inconclusive: 31.6 µM [inhibitor, single point]"
18,O=C(N[C@H]1CCC(=O)N([C@H](CSc2ccccc2)Cc2ccccc2)CC1)OCc1ccccc1,"inconclusive: 50.1 µM [inhibitor, partial curve, poor fit]"
19,CCOC(=O)N1CCC(=C2c3ccc(Cl)cc3CCc3cccnc32)CC1,"inconclusive: 100 µM [inhibitor, partial curve] and inconclusive: 50.1 µM [inhibitor, partial curve]"
20,Cc1nc(N=Nc2cc(S(=O)(=O)O)ccc2S(=O)(=O)O)c(COP(=O)(O)O)c(C=O)c1O,"inconclusive: 39.8 µM [inhibitor, partial curve]"

row,SMILES,Potency
1,COc1ccc2[nH]cc(CCNc3nc(-c4c(C)noc4C)nc4ccccc34)c2c1,"inconclusive: 79.4 µM [inhibitor, partial curve, poor fit]"
2,CCCC(=O)c1cc(O)c(O)cc1O,active: 63.1 µM
3,CCc1ccc(CCOc2ccc(CC3SC(=O)NC3=O)cc2)nc1 (stereo not given),inactive
4,Cc1ccccc1-c1ccc2ncnc(-n3ccnc3)c2c1,"inconclusive: 126 µM [inhibitor, single point]"
5,COC(=O)[C@@]1(C)CCC[C@@]2(C)c3ccc(O)c(C(C)C)c3CCC21 (stereo not given in full),"inconclusive: 20 µM [inhibitor, full curve, poor fit]"
6,O=C(C[n+]1ccc2ccccc2c1)c1ccc(F)cc1,"inconclusive: 39.8 µM [inhibitor, single point]"
7,O=c1cc(-c2ccccc2)oc2c(O)c(O)ccc12,"inconclusive: 44.7 µM [inhibitor, partial curve]"
8,Cc1c(-c2ccccc2)oc2cc(O)ccc2c1=O,inactive
9,CN1CCN(C2=Nc3ccccc3Oc3ccc(Cl)cc32)CC1,"inconclusive: 112 µM [inhibitor, single point]"
10,CCOC(=O)/C=C/c1ccc(C(F)(F)F)cc1S(=O)(=O)NC(C)(C)C,"inconclusive: 31.6 µM [inhibitor, partial curve]"
11,Cc1ccc(-c2ccnc(-n3ncc(C(=O)NCCN4CCOCC4)c3C3CC3)n2)o1,inactive
12,O=C(Cn1cc2ccccc2n1)N1CCOc2ccc(C(O)C3CCCCC3)cc2C1 (stereo not given),"inconclusive: 31.6 µM [inhibitor, partial curve]"
13,Cc1cc(-c2ccc(N=Nc3ccc4c(S(=O)(=O)O)cc(S(=O)(=O)O)c(N)c4c3O)c(C)c2)ccc1N=Nc1ccc2c(S(=O)(=O)O)cc(S(=O)(=O)O)c(N)c2c1O,active: 20 µM and active: 50.1 µM and active: 31.6 µM
14,COC(=O)[C@H](Cc1ccccc1)N(Cc1ccc(C)cc1)S(C)(=O)=O,"inconclusive: 112 µM [inhibitor, single point]"
15,COC(=O)[C@@H](N)CSC/C=C(\C)CC/C=C(\C)CCC=C(C)C,"inconclusive: 100 µM [inhibitor, partial curve, poor fit]"
16,O=S1(=O)CCO[C@H]2CCCC[C@@H]2N1Cc1ccc(Cl)cc1,"inconclusive: 100 µM [inhibitor, partial curve]"
17,C=C1C(=CC=C2CCC[C@@]3(C)[C@@H]2CC[C@H]3[C@H](C)CCCC(C)C)C[C@@H](O)C[C@@H]1O,"inconclusive: 44.7 µM [inhibitor, partial curve]"
18,NNCCc1ccccc1,"inconclusive: 22.4 µM [inhibitor, single point]"
19,COc1ccc(CNc2ccnc(-c3c(C)noc3C)n2)c(OC)c1,"inconclusive: 126 µM [inhibitor, partial curve, poor fit]"
20,CC(C)c1cc(/C=C(\C#N)C(=O)NCCCc2ccccc2)cc(C(C)C)c1O,"inconclusive: 50.1 µM [inhibitor, single point]"
